Some of the results follow. The full chains were built here from the parent and the listed change. Values near 0.05 are background.
B1: TEV protease; numbered along this chain (parent)
chain: MGESLFKGPRDYNPISSSICHLTNESDGHTTSLYGIGFGPFIITNKHLFRRNNGTLVVQSLHGVFKVKDTTTLQQHLVDGRDMIIIRMPKDFPPFPQKLKFREPQREERICLVTTNFQTKSMSSMVSDTSCTFPSGDGIFWKHWIQTKDGQCGSPLVSTRDGFIVGIHSASNFTNTNNYFTSVPKNFMELLTNQEAQQWVSGWRLNADSVLWGGHKVFMVKPEEPFQPVKEATQL

Variants of: B1
Experiment: raw area under fraction-flipped curve 0-4 h after induction (AUC4h, not background-subtracted), DNA-recorder readout of cleavage of the substrate (dimensionless); higher = more cleavage of the substrate by the protease variant
Conditions: temperature: 34 °C; time window: 0-4 h after rhamnose induction
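Further: Bxb1 expression induced with 0.2% (w/v) L-rhamnose at OD600 near 0.5, cultures sampled hourly, flipped fraction per protease–substrate barcode pair counted by paired-end Illumina sequencing.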

Variant	area with substrate ENLYFFS	area with substrate ENLYFIS	area with substrate ENLYFKS	area with substrate ENLYFPS	area with substrate ENLYFSS	area with substrate ENLYFYS	area with substrate ENLYFHS	area with substrate ENLYFLS	area with substrate ENLYFRS	area with substrate ENLYFWS
E231D	0.0567	0.0636	0.0705	0.0558	0.0689	0.0617	–	–	–	–
T159H	0.0656	0.0248	–	–	–	–	0.057	0.0616	0.0604	0.0533
T159W	–	–	–	–	–	–	–	–	–	0.0454
V58W	–	0.0258	0.0314	–	–	–	–	–	–	0.0409
V78Q	0.0682	0.0515	–	–	–	–	–	–	0.0471	–
G214T	–	0.0529	–	–	–	–	–	0.0709	–	–
E103N	0.0709	0.105	0.0514	–	–	–	–	–	–	–
H62E	–	0.0549	0.0466	0.0561	0.0625	0.0465	–	–	0.0666	–
D69A	0.0542	0.064	–	–	–	0.0594	–	–	–	–
F226P	–	0.0685	0.0593	0.0537	0.0646	–	0.0572	–	0.0596	–
V210A	0.0817	0.0559	0.0493	0.0469	–	–	–	–	–	–
L190V	0.0951	0.051	0.0776	0.0572	–	0.0801	–	0.0644	–	–
G8H	0.0558	–	–	–	–	0.0723	0.104	0.0541	0.0754	–
F95Q	–	–	–	–	0.0459	–	–	–	0.0365	–
A170N	–	0.0519	–	–	0.0405	–	0.0515	–	–	–
N193F	–	0.0438	–	–	0.0541	0.0564	0.0427	–	0.0626	0.0515
Q97V	–	–	–	0.0447	–	–	–	0.0599	–	–
F173K	0.073	–	–	–	–	–	–	–	–	–
F173P	0.0561	0.0552	–	0.0612	–	0.077	0.0622	–	–	0.0603
K7M	0.116	0.0659	–	0.0634	–	–	–	–	–	0.0506
Q75L	–	–	–	0.0684	–	–	–	–	–	–
L235D	–	–	0.0931	–	0.0613	0.062	0.0525	–	0.0728	0.0632

Variant	area with substrate ENLYFFS	area with substrate ENLYFIS	area with substrate ENLYFKS	area with substrate ENLYFPS	area with substrate ENLYFSS	area with substrate ENLYFYS	area with substrate ENLYFHS	area with substrate ENLYFLS	area with substrate ENLYFRS	area with substrate ENLYFWS
L235R	–	–	–	0.0539	–	–	–	–	–	0.0731
H215T	0.0754	–	–	0.0676	0.0553	0.0661	0.0717	–	0.0532	–
L211G	–	–	0.0571	0.0672	–	–	0.0615	–	–	–
F163C	0.082	–	0.0401	0.0539	0.0675	–	–	0.0442	–	–
L5S	0.042	0.0522	0.0596	–	0.0592	–	0.0501	0.0513	0.0601	–
C131L	–	–	–	–	–	0.0446	–	–	–	–
Y34P	–	0.0533	–	–	0.069	0.0522	–	–	–	–
F117I	0.0734	–	0.0783	0.0527	0.0836	–	–	–	0.0785	0.0555
V67E	0.047	–	–	0.0454	–	–	–	–	–	–
S171W	–	–	–	–	–	0.0786	–	–	–	–
L205Q	0.0792	0.0583	–	–	–	0.0617	–	–	0.0532	0.0511
L205P	–	0.057	0.0486	0.0632	–	–	–	–	0.0514	–
K90E	0.0682	–	0.0626	–	0.0475	–	–	0.0574	–	0.0557
E3K	0.0659	–	–	0.059	–	0.0668	0.0633	–	0.0541	0.0658
M188Q	0.0565	0.0557	0.0477	0.0567	0.0675	–	–	–	–	–
L99T	–	–	0.0761	0.0524	–	–	0.0689	–	–	–
Q74N	–	0.0628	0.0648	0.0609	–	0.0401	–	–	0.0525	–
N178P	–	0.0619	–	–	–	–	–	–	–	–
S201F	0.0663	–	0.0665	–	–	–	–	–	0.0672	–
T181N	0.0591	–	–	–	–	–	–	–	0.0696	–
T181D	–	0.0555	–	0.0721	0.0793	0.0636	–	0.0528	–	–
W141L	0.0686	–	–	0.0623	–	–	0.0462	0.0276	0.0722	–

Same assay, conditions: temperature: 34 °C; time window: 0-4 h after rhamnose induction

Variant	area with substrate ENLYFTS	area with substrate ENLYFMS	area with substrate ENLYFES	area with substrate ENLYFNS	area with substrate ENLYFGS	area with substrate ENLYFVS
T159W	0.0416	–	–	–	–	–
V78Q	–	0.0605	–	–	–	–
G214T	–	–	0.0673	–	–	–
E103N	0.0509	0.0598	–	0.0658	–	–
H62E	–	0.0637	–	0.0794	–	–
D69A	0.0483	0.0674	–	–	0.0427	0.0528
F226P	–	–	0.0723	0.108	0.0287	0.0575
L190V	0.0576	–	–	0.0501	–	–
G8H	–	0.0808	–	–	0.0696	0.0702
F95Q	–	0.07	–	–	0.0372	–
A170N	–	0.0544	–	0.0594	–	–
N193F	–	–	–	–	–	0.0788
Q97V	–	–	–	–	–	0.0856
F173K	0.0542	–	–	–	–	–
F173P	0.0534	–	–	0.0424	–	–
K7M	0.0513	0.068	–	–	0.0807	–
L235D	–	0.0775	0.08	0.0785	–	–
L235R	–	0.0591	–	–	–	–
H215T	0.0539	0.0564	–	0.0617	0.0527	–
L211G	0.081	0.0588	0.0672	–	–	–

Variant	area with substrate ENLYFTS	area with substrate ENLYFMS	area with substrate ENLYFES	area with substrate ENLYFNS	area with substrate ENLYFGS	area with substrate ENLYFVS
F163G	–	0.0587	–	–	–	–
F163C	–	–	–	0.0719	–	–
L5S	–	0.0777	–	–	–	–
Y34P	–	0.0451	–	–	–	0.0478
F117I	0.0617	0.0728	–	–	0.0482	0.0419
V67E	0.0582	–	–	–	–	–
S171W	0.0497	0.0657	–	0.0634	0.0733	–
L205Q	–	0.0673	–	–	–	–
L205P	–	–	–	–	–	0.0603
K90E	–	0.075	–	0.0733	–	–
E3K	0.0565	0.0738	–	0.0835	–	–
M188Q	0.0574	0.0709	0.0664	–	–	–
L99T	0.0486	0.0436	–	0.0564	–	–
Q74N	–	0.0613	–	–	0.0566	0.0529
N178P	0.0397	0.0586	–	–	–	–
S201F	–	0.0449	–	–	–	–
T181N	–	0.0792	–	–	–	0.0625
T181D	–	–	–	0.0607	0.0543	–
W141L	0.0487	0.06	–	0.0654	–	–

— the supplement of paper PMC12217912
